Paper PMC13083723 (Patterns, 2026)
Out of some 5,400 compounds screened, about 190 (3.5%) showed an effect of 50% or more. The list shows a part of the results.

System: Vero-E6
Test: primary screen, phospholipidosis by LipidTOX staining; higher = more effect of the substance
Conditions: 10 µM
Method in brief: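 Drug-induced phospholipidosis detected with HCS LipidTOX Red reagent in Vero-E6 cells. Compounds tested at 10 μM, with amiodarone (10 μM) as positive control and DMSO (0.1 v/v %) as vehicle.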

First: O=C(Oc1cc(S(=O)(=O)c2ccccc2)ccc1[N+](=O)[O-])c1ccc(Cl)cc1
Second: O=C(Nc1cc(-c2ccccc2)nn1-c1ccccc1F)c1ccc([N+](=O)[O-])cc1
The result_ITMP of the first is lower: -3.25% for the first, -0.13% for the second.

Compared with CC(C)(C)c1cc(C(C)(C)C)c2c(c1)C(O)(C(F)(F)F)C(=O)O2 (racemic), COC(=O)C1=C(C)NC(C)=C([N+](=O)[O-])[C@H]1c1ccccc1C(F)(F)F is higher in result_ITMP: -2.16% for the first, -1.73% for the second.

Going from COC[C@H](C)Oc1cc(O[C@@H](C)Cc2ccccc2)cc(C(=O)Nc2ccc(C(=O)O)cn2)c1 to COC(=O)[C@H](NC(=O)c1cc(-c2ccccc2)nc2ccccc12)c1ccccc1, the result_ITMP rises from -2.14% to -1.53%.

Compared with CC(C)CC(N(C)C)C1(c2ccc(Cl)cc2)CCC1 (stereo not drawn), CC(C)Cc1ccc(C(C)C(=O)O)cc1 (stereo not drawn) [R4A_0001344_001 / SPE_A17655518] is lower in result_ITMP: 7.43% for the first, -3.6% for the second.

First: CCN1CCN(Cc2ccc(C(=O)Nc3ccc(C)c(Oc4ccc5c(c4)CC(=O)N5)c3)cc2C(F)(F)F)CC1
Second: CNC(=O)c1cc(Oc2ccc(NC(=O)Nc3ccc(Cl)c(C(F)(F)F)c3)cc2)ccn1
The result_ITMP of the first is higher: 99.1% for the first, -6.63% for the second.

First: CN1CCC(=C2c3ccccc3Sc3ccccc32)CC1
Second: c1ccc2c(c1)Sc1ccccc1N2CC1CN2CCC1CC2 (stereo not drawn)
The result_ITMP of the first is lower: 44.9% for the first, 71.6% for the second.

First: Nc1c2ccccc2nc2ccccc12
Second: Cc1ccc(=O)n(-c2ccccc2)c1
The result_ITMP of the first is higher: 31.8% for the first, 0.14% for the second.

Going from CNCCCC1(c2ccccc2)OC(C)(C)c2ccccc21 (stereo not drawn) to O=C(OOC(=O)c1ccccc1)c1ccccc1, the result_ITMP falls from 29.5% to -9.46%.

Compared with C[C@]12CCC3C(CC[C@]4(O)C[C@@H](O)CC[C@]34C=O)[C@@]1(O)CCC2C1=CC(=O)OC1 (stereo partly drawn), C[C@]12CCC(=O)C=C1CC[C@@H]1[C@@H]2CC[C@@]2(C)[C@H]1CC[C@]2(O)C(=O)CO is higher in result_ITMP: -7.08% for the first, -5.73% for the second.

Compared with O=S(=O)(N[C@H]1CC[C@@](c2cc(F)ccc2F)(S(=O)(=O)c2ccc(Cl)cc2)CC1)C(F)(F)F, NC(=O)[C@@H](CC1CC1)[C@@H](CCC(F)(F)F)C(=O)N[C@H]1N=C(c2ccccc2)c2cccc(F)c2NC1=O is higher in result_ITMP: -0.57% for the first, 0.31% for the second.

First: N[C@@H](Cc1ccc(B(O)O)cc1)C(=O)O
Second: N[C@H](Cc1c[nH]c2ccccc12)C(=O)O
The result_ITMP of the first is lower: 2.53% for the first, 2.75% for the second.

Compared with C#C[C@]1(O)CC[C@H]2[C@@H]3CCC4=CCCC[C@@H]4[C@H]3CC[C@@]21C, C#C[C@]1(O)CCC2C3CCC4=C(CCC(=O)C4)C3CC[C@@]21C (stereo partly drawn) is higher in result_ITMP: -6.81% for the first, -3.8% for the second.

Compared with O=S(c1ccccc1)c1ccc2nnnn2n1 (stereo not drawn), Cc1ccc(Cl)c(Nc2ccccc2C(=O)[O-])c1Cl is lower in result_ITMP: 4.16% for the first, -2.49% for the second.

First: O=C(Nc1ccncc1)c1cc([N+](=O)[O-])ccc1Cl
Second: Nc1nc(-c2ccc(Cl)c(Cl)c2)c(-c2ccncc2)s1
The result_ITMP of the first is higher: -1.82% for the first, -2.04% for the second.

Compared with CCCCCCNC(=O)Nc1ccc(S(=O)(=O)Nc2ccc(CCNC[C@H](O)COc3ccc(O)cc3)cc2)cc1, CC/C(=C(\c1ccc(O)cc1)c1ccc(OCCNC)cc1)c1ccccc1 is higher in result_ITMP: -1.62% for the first, 27.8% for the second.

First: O=C(CCCN1CCN(c2ccccn2)CC1)c1ccc(F)cc1
Second: CCCCCCCCCC(=O)OC1(c2ccc(Cl)cc2)CCN(CCCC(=O)c2ccc(F)cc2)CC1
The result_ITMP of the first is higher: 2.76% for the first, 0.73% for the second.

First: N[C@@H](CS(=O)O)C(=O)O
Second: NCCCC[C@H](N)C(=O)O
The result_ITMP of the first is lower: -1.45% for the first, -0.65% for the second.

Going from CCOc1ccc(-c2ccc(Cn3c(CC(C)(C)C(=O)[O-])c(SC(C)(C)C)c4cc(OCc5ccc(C)cn5)ccc43)cc2)cn1 to Cc1noc(-c2ccc(-c3ccc(CC(=O)[O-])cc3)cc2)c1NC(=O)O[C@H](C)c1ccccc1, the result_ITMP falls from 0.09% to -0.34%.

Compared with COCCCN1CCC(NC(=O)c2cc(Cl)c(N)c3c2OCC3)CC1, CN1CCN(CCCCN2C(=O)CN(/N=C/c3ccc(-c4ccc(Cl)cc4)o3)C2=O)CC1 is higher in result_ITMP: -5.56% for the first, 22.9% for the second.

Going from COc1oc(=O)c2cc(N)ccc2c1Cl to COc1cc2nccc(Oc3ccc(NC(=O)NC4CC4)c(Cl)c3)c2cc1C(N)=O, the result_ITMP falls from 0.56% to -1.49%.

Compared with COC(=O)C1=C(C#N)NC(C)=C(C(=O)OC(C)C)C1c1cccc([N+](=O)[O-])c1 (stereo not drawn), COc1cccc2c1C(=O)c1c(O)c3c(c(O)c1C2=O)C[C@@](O)(C(C)=O)C[C@@H]3O[C@H]1C[C@H](N)[C@H](O)[C@H](C)O1 is higher in result_ITMP: 4.59% for the first, 6.36% for the second.

Going from C[C@@H](CN1CCC(Cc2ccccc2)CC1)[C@@H](O)c1ccc(O)cc1 to CC(COc1ccccc1)NC(C)[C@H](O)c1ccc(O)cc1 (stereo partly drawn), the result_ITMP rises from 0.55% to 2.04%.

Compared with CN1C(=O)CC[C@H]1c1cccnc1, Cc1c(NC(=O)c2cccnc2)c(=O)n(-c2ccccc2)n1C is lower in result_ITMP: -4.43% for the first, -8.04% for the second.

Compared with Cc1c(CN2CCN(C(=O)[C@H](C)O)CC2)sc2c(N3CCOCC3)nc(-c3cnc(N)nc3)nc12, Cc1cnc(-c2cc(N3CCN(C(=O)CCS(C)(=O)=O)CC3)ncc2Cl)c(C)c1 is lower in result_ITMP: 4.81% for the first, -1.89% for the second.

Compared with CC(C)(CO)c1cc2cc(NC(=O)C3(c4ccc5c(c4)OC(F)(F)O5)CC3)c(F)cc2n1C[C@@H](O)CO, C=CC(=O)Nc1cc2c(Nc3ccc(F)c(Cl)c3)ncnc2cc1C#CC(C)(C)N1CCN(C)CC1 is higher in result_ITMP: 4.22% for the first, 36.6% for the second.

First: O=c1c(-n2ccnn2)c[nH]n1-c1cc(N2CCOCC2)ncn1
Second: c1nc2c(NC3CCCCC3)nc(Nc3ccc(N4CCOCC4)cc3)nc2[nH]1
The result_ITMP of the first is higher: -0.16% for the first, -1.32% for the second.

First: CC[C@@H]1C(=O)OC[C@@H]1Cc1cncn1C
Second: Nc1ccn([C@@H]2O[C@@](CO)(CCl)[C@@H](O)[C@H]2F)c(=O)n1
The result_ITMP of the first is lower: -4.18% for the first, -0.65% for the second.

Going from CN1CCc2c(c3ccccc3n2Cc2ccc(C(=O)NO)cc2)C1 to COc1ccccc1N1CCN(CCCCNC(=O)c2ccc(-c3ccc(C(C)=O)cc3)cc2)CC1, the result_ITMP rises from 1.21% to 6.35%.

Compared with N[C@@H](Cn1oc(=O)[nH]c1=O)C(=O)O, CC(O)Cn1cnc2c1c(=O)n(C)c(=O)n2C (stereo not drawn) is higher in result_ITMP: -2.69% for the first, 4.07% for the second.

First: COCCOCCOc1ccc(C2=N[C@@](C)(C(=O)O)CS2)c(O)c1
Second: CCC(C)(Oc1ccc(C2(c3ccc(OC(C)(CC)C(=O)O)cc3)CCCCC2)cc1)C(=O)O (stereo not drawn)
The result_ITMP of the first is higher: -2.45% for the first, -7.93% for the second.

First: COc1ccccc1Oc1c(NS(=O)(=O)c2ccc(C)cn2)nc(-c2ccncc2)nc1OC
Second: Cc1ccc(S(=O)(=O)Cc2nc(-c3ccc(C(=O)NCc4cccnc4)cc3)oc2C)cc1
The result_ITMP of the first is higher: -1.45% for the first, -2.5% for the second.

First: C[C@@H](O[C@H]1OCCN(Cc2nn(P(=O)(O)O)c(=O)[nH]2)[C@H]1c1ccc(F)cc1)c1cc(C(F)(F)F)cc(C(F)(F)F)c1
Second: Cc1ccc(C(=O)Nc2ccc(Oc3cc4cnn(C)c4cc3-c3cn[nH]c3)c(F)c2)c(=O)n1-c1ccc(F)cc1
The result_ITMP of the first is higher: 6.28% for the first, 2.44% for the second.

First: CCn1c(=O)[nH]c2cc(Cl)c(Cl)cc21
Second: OCc1c[nH]c2ccccc12
The result_ITMP of the first is lower: -5.92% for the first, 1.08% for the second.

Compared with CCCCCCCC/C=C\CCCCCCCC(N)=O, NC(=O)CCCCC1CCSS1 (stereo not drawn) is higher in result_ITMP: -1.41% for the first, 8.62% for the second.

Compared with NS(=O)(=O)c1cc2c(cc1C(F)(F)F)NCNS2(=O)=O, Nc1nc(=O)c2c([nH]1)NCC(CNc1ccc(C(=O)N[C@@H](CCC(=O)[O-])C(=O)[O-])cc1)N2C=O (stereo partly drawn) is higher in result_ITMP: -2.43% for the first, -2.25% for the second.

Compared with Cc1ncc(-c2ccnc(Nc3ccc(S(C)(=O)=O)cc3)n2)n1C(C)C, N#CCNC(=O)c1ccc(-c2ccnc(Nc3ccc(N4CCOCC4)cc3)n2)cc1 is higher in result_ITMP: 13.9% for the first, 24.6% for the second.

First: OC[C@H]1O[C@@H](n2cnc3c(N[C@H]4CCC[C@@H]4O)ncnc32)[C@H](O)[C@@H]1O
Second: CN1CCCC1CCSc1ccc(O)cc1 (stereo not drawn)
The result_ITMP of the first is lower: -1.85% for the first, 2.34% for the second.

First: COC1(C2=NCCN2)COc2ccccc2O1 (stereo not drawn)
Second: CN1CC[C@@H](NC(=O)Nc2ccc(C#N)cc2)C[C@@H]1c1nc2ccccc2[nH]1
The result_ITMP of the first is lower: -1.78% for the first, -1.63% for the second.

First: N#Cc1ccc(-c2csc(NN=C3CCCC3)n2)cc1
Second: CC(=O)N(C)c1cccc(-c2ccnc3c(C(=O)c4cccs4)cnn23)c1
The result_ITMP of the first is lower: -2.43% for the first, -1.02% for the second.

First: C[C@@H]1[C@H](O)[C@@H](C)/C=C/C=C/CC/C=C/C=C/C=C/C=C/[C@H](O[C@@H]2O[C@H](C)[C@@H](O)[C@H](N)[C@@H]2O)C[C@@H]2O[C@](O)(C[C@@H](O)[C@H](O)CC[C@@H](O)C[C@@H](O)C[C@@H](O)CC(=O)O[C@H]1C)C[C@H](O)[C@H]2C(=O)O
Second: Oc1cc(O)c2c(c1)O[C@H](c1ccc(O)c(O)c1)[C@H](O)[C@H]2c1c(O)cc(O)c2c1O[C@H](c1ccc(O)c(O)c1)[C@H](O)C2
The result_ITMP of the first is higher: 1.67% for the first, -0.6% for the second.

First: O=C(/C=C/c1ccc(O)cc1)c1ccc(O)cc1O
Second: Cc1cc(Cn2nnc3c(-c4ccco4)nc(N)nc32)ccc1N
The result_ITMP of the first is lower: -6.35% for the first, -1.13% for the second.

First: CS(=O)(=O)OCCCCOS(C)(=O)=O
Second: CC(=C(CCOC(=O)C(C)C)SSC(CCOC(=O)C(C)C)=C(C)N(C=O)Cc1cnc(C)nc1N)N(C=O)Cc1cnc(C)nc1N (stereo in doubt)
The result_ITMP of the first is higher: -2.03% for the first, -2.27% for the second.

Compared with CC1(C)CC(O)CC(C)(C)N1[O], COc1cc(C[C@H]2c3cc(OC)c(OC)cc3CCN2C)c(Oc2cc3c(cc2OC)-c2c(OC)c(OC)cc4c2[C@H](C3)N(C)CC4)cc1OC is higher in result_ITMP: -2.69% for the first, 37.3% for the second.

With C#CCN(C)C(C)Cc1ccccc1 (stereo not drawn) the result_ITMP was 3.13%.
